Screen size: about 310,000 compounds; about 14,000 (4.5%) showed an effect of 50% or more. Effects have a minus sign here. The list shows a part of the results.
target: human ether-à-go-go-related gene (hERG) potassium channel (human, UniProt Q12809); experiment: primary screen, population patch clamp on CHO cells stably expressing hERG
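Also: peak tail current of the secondary pulse compared with the same well before compound.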

human ether-à-go-go-related gene (hERG) potassium channel, sequence (Q12809 whole entry, looked up): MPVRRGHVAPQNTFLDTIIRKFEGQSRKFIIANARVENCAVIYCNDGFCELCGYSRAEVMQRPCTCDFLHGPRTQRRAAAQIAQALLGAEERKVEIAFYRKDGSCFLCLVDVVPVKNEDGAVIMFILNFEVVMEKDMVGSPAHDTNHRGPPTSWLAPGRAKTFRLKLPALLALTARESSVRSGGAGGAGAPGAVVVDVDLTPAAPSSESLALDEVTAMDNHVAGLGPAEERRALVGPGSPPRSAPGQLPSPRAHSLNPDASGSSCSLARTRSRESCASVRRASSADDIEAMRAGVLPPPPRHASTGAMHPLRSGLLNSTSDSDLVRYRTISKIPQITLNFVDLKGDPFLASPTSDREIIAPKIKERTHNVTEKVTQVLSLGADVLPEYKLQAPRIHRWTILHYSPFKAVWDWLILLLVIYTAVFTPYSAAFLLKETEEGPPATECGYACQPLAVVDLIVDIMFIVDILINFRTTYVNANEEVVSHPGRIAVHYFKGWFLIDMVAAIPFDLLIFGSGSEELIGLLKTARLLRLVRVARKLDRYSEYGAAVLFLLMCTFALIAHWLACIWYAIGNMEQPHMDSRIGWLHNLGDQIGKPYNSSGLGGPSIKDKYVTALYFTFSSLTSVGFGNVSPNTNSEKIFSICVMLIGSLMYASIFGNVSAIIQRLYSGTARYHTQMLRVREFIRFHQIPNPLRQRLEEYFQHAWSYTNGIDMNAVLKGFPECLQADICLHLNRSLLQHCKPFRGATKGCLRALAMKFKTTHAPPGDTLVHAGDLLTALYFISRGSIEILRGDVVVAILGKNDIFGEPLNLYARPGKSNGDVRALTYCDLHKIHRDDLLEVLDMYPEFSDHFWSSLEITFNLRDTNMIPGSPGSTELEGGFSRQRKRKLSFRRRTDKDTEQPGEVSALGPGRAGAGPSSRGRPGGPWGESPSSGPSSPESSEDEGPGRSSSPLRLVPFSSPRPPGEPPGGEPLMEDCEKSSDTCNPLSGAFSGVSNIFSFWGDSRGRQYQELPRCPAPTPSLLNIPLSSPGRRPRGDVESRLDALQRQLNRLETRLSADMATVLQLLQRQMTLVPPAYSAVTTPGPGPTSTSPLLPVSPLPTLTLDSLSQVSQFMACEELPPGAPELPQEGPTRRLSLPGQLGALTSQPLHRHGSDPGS

Structure (SMILES) | hERG current change (%, negative = inhibition) at 10uM
Cc1cccn2c(=O)c(C=NCCO)c(NCc3ccco3)nc12 | -18.7%
C=CCn1c(SCC(=O)Nc2sc(C)c(C)c2C(=O)OCC)nnc1-c1sc(N)nc1C | 4.94%
CSCc1ccc(C(=O)NCc2ccc(F)cc2)cc1 | -2.07%
O=C(NCCN1CCOCC1)/C(=C/c1ccccc1)NC(=O)c1ccccc1 | -16.4%
COCCN(C(=O)CSc1nnc(-c2ccco2)n1C)c1c(N)n(CC(C)C)c(=O)[nH]c1=O | 8.41%
CCc1ccc2n(-c3ccc(OC)cc3)c([S-])c(C(=O)Nc3cc(C)cc(C)c3)[n+]2c1 | 12.3%
O=C(COC(=O)Cc1ccsc1)Nc1cccc(F)c1 | -0.473%
COc1ccc(C(=O)N2CCN(c3cnn(-c4ccccc4)c(=O)c3Cl)CC2)cc1 | -71.3%
CC(=O)c1ccc(OCCCC(=O)OCC(=O)Nc2c(C)nn(-c3ccccc3)c2C)cc1 | -7.41%
Cc1nn(C2CCS(=O)(=O)C2)c(Cl)c1/C=C/C(=O)OCC(=O)Nc1ccccc1OC(F)F (stereo not shown) | -49.2%
COc1cccc(-c2ccc(=O)n(CC(=O)NCCN3CCOCC3)n2)c1 | -6.39%
CC(C)C1S/C(=N/N=C/c2cccs2)NC1=O (stereo not shown) | 11.8%
CC(CCO)Nc1nc2c(c(=O)n(C)c(=O)n2C)n1Cc1cccc(Br)c1 (stereo not shown) | -2.15%
COc1ccc(Nc2nc(N)c(C(=O)c3ccc(OC)cc3)s2)cc1 | -52.7%
COc1ccc(C(=O)N2CCCC(O)C2)cc1OC1CCN(C(C)C)CC1 (stereo not shown) | 23.8%
CC1=NN(c2ccccc2)C(=O)/C1=C\c1cn(C)c2ccccc12 | 19.3%
COCC(C)NC(C(=O)Nc1cccc(C(C)=O)c1)c1ccccc1 (stereo not shown) | -5.76%
NC(=O)C1CCN(C(=O)C2(NC(=O)Nc3cccc(F)c3)CCCCC2)CC1 | 10.2%
CCCc1nc2sc3c(=O)n(N)cnc3c2c2c1COC(C)(C)C2 | 7.41%
CCOC(=O)C1C2NC(=O)N(Cc3ccccc3)C1(C)Oc1c(OC)cccc12 (stereo not shown) | 5.29%
COc1ccc(Cl)cc1NC(=O)CSc1nc(Nc2ccccc2)nc(N2CCOCC2)n1 | 4.41%
CN(CC(=O)Nc1ccc2c(c1)CCC2)CC(=O)Nc1ccccc1Br | -1.6%

Structure (SMILES) | hERG current change (%, negative = inhibition) at 10uM
CCOc1ccc(C2CC(c3cccc(OC)c3OC)n3nnnc3N2)cc1Cl (stereo not shown) | -19.2%
Cc1ccccc1Oc1nc(-c2ccccn2)nc2ccccc12 | -10%
O=C(CN1CCCCC1)NC(=O)NC1CCCC1 | 6.94%
CC(C)CC1(C)NC(=O)N(Cc2cc([N+](=O)[O-])cc3c2OCOC3)C1=O (stereo not shown) | -4.84%
Cc1ccc(CN2CCS(=O)(=O)CC2)o1 | -3.44%
CCN(CC)c1ccc(/C=C2\C(=O)NC(=S)N(c3ccc(OC)cc3OC)C2=O)o1 | -4.73%
C1=Nc2c(Nc3ccccc3)ncnc2Oc2ccccc21 | -2.34%
Cc1ccc2[nH]c(C(=O)O)c(NC(=O)[C@@H]3C[C@@H]3c3ccccc3)c2c1 | -2.52%
COc1cccc(N(C(=O)CNC(=O)c2ccco2)C(C(=O)NC2CCCCC2)c2cccnc2)c1 (stereo not shown) | 3.87%
Cc1cccc(OCCNc2ccc([N+](=O)[O-])cn2)c1 | -21.3%
Cc1noc(C)c1COc1ccc(C(=O)N2CCN(c3ccccc3F)CC2)cc1 | -55%
O=C(NC(=S)Nc1ccc(N2CCOCC2)cc1)c1ccc2c(c1)OCCO2 | 17.3%
Cc1ccc(Nc2nc(-c3ccccc3)c(CC(=O)O)s2)cc1 | 31.3%
CCOn1c(=O)c(=O)n(OCc2ccccc2)c2ccccc21 | -3.67%
O=C(N1CCCCCC1)N1CCN(S(=O)(=O)N2CCOCC2)CC1 | -3.51%
CCn1c(C)nc2cc(C(=O)NNC(=O)CCC3CCCC3)ccc21 | 9.18%
CCC(=O)N1CCc2cc(S(=O)(=O)NC(C(=O)NC3CCCc4ccccc43)C(C)C)ccc21 (stereo not shown) | -1.57%
O=C1NC(c2ccccc2)=C(c2ccc3ccccc3n2)C(c2ccccc2)N1 (stereo not shown) | 6.13%
CCCN1C(=O)/C(=C/c2ccc(C)s2)NC1=S | 15.8%
O=C(c1ccccc1F)N1CCC(O)(c2cccnc2)CC1 | 5.56%
CN1C(=O)/C(=C/c2cc3c(cc2Br)OCO3)NC1=S | 20.5%
Br.CCCCN1C2=NCCCN2c2cc(C)c(C)cc21 | -65.4%

Structure (SMILES) | hERG current change (%, negative = inhibition) at 10uM
CCN(C(=O)COc1ccccc1)c1nnc(-c2cccnc2)s1 | 8.69%
CSc1nnc(-c2ccc(C(F)(F)F)cn2)o1 | 11.7%
O=S(=O)(/N=S1/CC=CCN1S(=O)(=O)c1ccccc1)c1ccccc1 (stereo not shown) | 10.6%
CC1CCCC(C)N1C(=O)COC(=O)CNC(=O)c1ccccc1F (stereo not shown) | 17.2%
Cc1ccc(CCNC(=O)C2CCCN(c3nc4ccccc4o3)C2)cc1 (stereo not shown) | -26.9%
NC(=O)c1ccc(Oc2ccc(Cl)c3ccccc23)c([N+](=O)[O-])c1 | 3.41%
C=CCn1c(SCc2cc(C(=O)OC)c(C)o2)nnc1-c1ccncc1 | -16.2%
CCOC(=O)C1=C(CNCc2ccc(F)cc2)NC(=O)NC1c1cccc([N+](=O)[O-])c1 (stereo not shown) | -29.1%
O=C(Nc1ccc(F)cc1)c1cc2cc(Cl)ccc2[nH]1 | -14.8%
Cc1ccccc1NC(=O)Cc1c[nH]c2ccccc12 | 14.4%
Cc1cccc(CN2CCc3c(OCC(=O)N4CCCc5ccccc54)cccc3C2=O)c1 | 7.12%
Cc1noc(C)c1CSCC(=O)Nc1ccc(S(C)(=O)=O)cc1 | 15.2%
CC(C(=O)NCc1cccc(Cl)c1)N1C(=O)c2ccccc2C1=O (stereo not shown) | 5.05%
CC(CCCC(C)(C)O)NC(=O)c1cc(COc2ccc3ncccc3c2)on1 (stereo not shown) | 5.7%
O=[N+]([O-])c1cccc(N/N=C/c2cccc3ccccc23)c1 | 1.97%
O=C(Nc1nnc(COc2ccccc2)s1)C1CCN(S(=O)(=O)c2ccc(Cl)cc2)CC1 | 1.8%
COc1ccc(OC)c(/C=C/C(=O)OCC(=O)Nc2cccc(Oc3ccccc3)c2)c1 | 26.9%
Cc1c(Cl)cccc1NC(=O)CSc1nccn1C | 7.09%
COc1cccc(-n2cc3c(=O)n(C)c(=O)n(C)c3c2)c1 | -3.89%
CCOC(=O)COc1ccc(S(=O)(=O)Nc2ccc3c(c2)OCCO3)cc1 | -3.24%
CCOc1ccccc1-n1nnnc1SCC(=O)NC(=O)Nc1ccc2c(c1)OCCO2 | 14.6%
COc1cccc(C(=O)C2CCCN(C(=O)c3ccccc3Cl)C2)c1 (stereo not shown) | 5.15%

Structure (SMILES) | hERG current change (%, negative = inhibition) at 10uM
O=S(=O)(NCc1cn2ccccc2n1)c1cccs1 | 4.2%
Cc1cccc(CSCc2nnc(N)s2)c1 | 0.493%
COc1ccc(/C=C(\NC(=O)c2ccccc2)C(=O)N/N=C/c2cccnc2)cc1 | -5.03%
Cc1ccc(N(Cc2ccccc2F)S(C)(=O)=O)c(C)c1 | 0.0796%
CCOC(=O)[C@@H]1[C@H]2COc3ccccc3[C@H]2N2C(=O)N(c3ccc(F)cc3)C(=O)[C@]12C | -4.36%
Cc1sc(NC(=O)CN2CCOCC2)c(C#N)c1C | 6.15%
CCOC(=O)C1=C(N)Oc2c(c(=O)[nH]c3ccccc23)C1c1ccccc1 (stereo not shown) | 0.203%
COc1ccc(OC)c(N/C=C/C(=O)c2ccccc2)c1 | 13.7%
CC(NC(=O)c1ccco1)C(=O)OC(C)C(=O)NCc1ccccc1 (stereo not shown) | 21.7%
COc1ccccc1C(=O)NC(CCSC)C(=O)NNC(=O)c1ccc(F)cc1 (stereo not shown) | 1.77%
O=C(O)c1nc(NCCc2ccccc2)ncc1Cl | 14%
CCn1cc(CNc2nc3nonc3nc2N2CCCCC2)cn1 | -4.36%
Cc1cc(/C=C2/SC(=O)N(CC(=O)OC(C)C)C2=O)c(C)n1C | -9.2%
CCc1nonc1NC(=O)c1oc2ccc(Br)cc2c1C | 16.2%
O=C(CCN1CCCCC1)Nn1c(=S)[nH]c2ccccc2c1=O | 4.05%
O=C(NN1C(=O)NC2(CCCCC2)C1=O)c1cc2ccccc2o1 | 46%
C=C(C)Cn1c(C)cc(C)c(S(=O)(=O)c2ccccc2C)c1=O | 11%
COc1cccc(N(CC(=O)N2CCN(c3ccccc3OC)CC2)S(C)(=O)=O)c1 | -5.04%
COc1cc2c(c3oc(-c4ccccc4)cc(=O)c13)C=CC(C)(C)O2 | -11.4%
Cc1ccc(S(=O)(=O)c2cnc(-c3ccccc3)nc2N2CCCCC2)cc1 | 25.7%
O=C(NCc1cccnc1)c1ccc(CN2CCc3ccccc3C2)cc1 | -1.76%
N/C(=N\[N+](=O)[O-])N1CCN(C(=O)c2ccccn2)CC1 | 22.2%
